This is an account of results in a collection of fitness landscapes (doi:10.1016/j.celrep.2020.107928).

Over roughly 81,000 sequences, “one-hybrid fitness for binding NBS DNA” has its median near -0.1; the highest 2% begin near 0.36. This is one part of the list.

To fix the notation:
B1: Caulobacter ParB omega fusion; a variant is named by its letters at X, in order, B8GW30 (parent)
chain: MESVVVGEPGMSEGRRGLGRGLSALLGEVDAAPAQAPGEQLGGSREAPIEILQRNPDQPRRTFREEDLEDLSNSIREKGVLQPILVRPSPDTAGEYQIVAGERAWRAAQRAGLKTVPIMVRELDDLAVLEIGIIENVQRADLNVLEEALSYKVLMEKFERTQENIAQTIGKSXSHVANXMRLLXLPDEVQSYLVSGELTAXHARAIAAAADPVALAKQIIEGGLSVRETEALARKAPNLSAGKSKGGRPPRVKDTDTQALESDLSSVLGLDVSIDHRGSTGTLTITYATLEQLDDLCNRLTRGI

The variants in this test derive from B1. The test can be described thus: one-hybrid fitness for binding NBS DNA (the Noc-binding site; scaled: cognate 1, non-cognate 0); higher = stronger binding. As to conditions: with NBS DNA site. The gist of the method:
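Pre- and post-selection plasmids were Illumina-sequenced, three replicate libraries were pooled, and any variant with under 10 reads was removed. The libraries were Caulobacter ParB with four specificity codons randomised, selected in E. coli USO through a HIS3 reporter whose site is 19 bp from the promoter. Cells grew 48 hours at 37°C on M9 without histidine, with 0.1 mM IPTG and 5 mM 3-AT. Fitness is the log change in variant-to-wild-type read ratio, rescaled against cognate and non-cognate.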
Take QVCL: the “one-hybrid fitness for binding NBS DNA” value was at most 0.2. The figure for CRKG is at most 0.2; for STTR it is at most 0.2; for LPYD it is at most 0.2.

As for ADSW, the “one-hybrid fitness for binding NBS DNA” value is at most 0.2.

On to SNRA, for which the “one-hybrid fitness for binding NBS DNA” value was at most 0.2. The figure for RFEE is at most 0.2; for RHEG it is at most 0.2. The figure for TKYL is at most 0.2. In the case of PAHH, the “one-hybrid fitness for binding NBS DNA” value is at most 0.2. The figure for PHPD is at most 0.2; for VGSM it is at most 0.2. The figure for SKEK is at most 0.2. Regarding HAGS, the “one-hybrid fitness for binding NBS DNA” value is at most 0.2.

Regarding HLSW, the “one-hybrid fitness for binding NBS DNA” value was at most 0.2.

As for GVPY, the “one-hybrid fitness for binding NBS DNA” value was at most 0.2. The figure for MDCE is at most 0.2; for RNTQ it is at most 0.2.

Take EFPC: the “one-hybrid fitness for binding NBS DNA” value is at most 0.2. On to PSRM, for which the “one-hybrid fitness for binding NBS DNA” value is at most 0.2. As for EQQS, the “one-hybrid fitness for binding NBS DNA” value was at most 0.2. For QICR, the “one-hybrid fitness for binding NBS DNA” value was 0.377.

As for GERF, the “one-hybrid fitness for binding NBS DNA” value was at most 0.2. For the variant AKRK, the “one-hybrid fitness for binding NBS DNA” value is at most 0.2. As to PQKL, the “one-hybrid fitness for binding NBS DNA” value was at most 0.2. The figure for TRGG is at most 0.2. Take GILP: the “one-hybrid fitness for binding NBS DNA” value was at most 0.2.

Take HYAR: the “one-hybrid fitness for binding NBS DNA” value is at most 0.2. The figure for QAHE is at most 0.2; for ASNL it is at most 0.2. The figure for MLDC is at most 0.2. On to QCRD, for which the “one-hybrid fitness for binding NBS DNA” value turned out to be 0.384. As for LMKG, the “one-hybrid fitness for binding NBS DNA” value is at most 0.2.

As for YETE, the “one-hybrid fitness for binding NBS DNA” value was at most 0.2. For the variant DHHF, the “one-hybrid fitness for binding NBS DNA” value was at most 0.2. The figure for DLRA is at most 0.2; for LSQI it is at most 0.2. For HNLM, the “one-hybrid fitness for binding NBS DNA” value is at most 0.2. The figure for QWMT is at most 0.2; for SDNR it is at most 0.2; for TSNT it is at most 0.2. Consider KSMH, for which the “one-hybrid fitness for binding NBS DNA” value is at most 0.2.

Turning to CGVG, the “one-hybrid fitness for binding NBS DNA” value is at most 0.2. The figure for YVMV is at most 0.2. As to RSRE, the “one-hybrid fitness for binding NBS DNA” value was at most 0.2. Take TLWG: the “one-hybrid fitness for binding NBS DNA” value was at most 0.2.

On to AVRH, for which the “one-hybrid fitness for binding NBS DNA” value is at most 0.2. The figure for SAVW is at most 0.2; for HTSP it is at most 0.2.

Turning to AYDL, the “one-hybrid fitness for binding NBS DNA” value was at most 0.2. With RVSF, the “one-hybrid fitness for binding NBS DNA” value is at most 0.2. The figure for PRGW is at most 0.2; for WGLN it is at most 0.2. The figure for RHSK is at most 0.2; for DGKQ it is at most 0.2. The figure for PLQR is at most 0.2; for WTQS it is at most 0.2. For the variant RKIR, the “one-hybrid fitness for binding NBS DNA” value worked out at 0.384. Turning to NQRS, the “one-hybrid fitness for binding NBS DNA” value is at most 0.2. The figure for VFSS is at most 0.2; for YCEG it is at most 0.2; for HAAG it is at most 0.2.

As for PAAW, the “one-hybrid fitness for binding NBS DNA” value is at most 0.2.

As to LRIN, the “one-hybrid fitness for binding NBS DNA” value was at most 0.2. As for WQYR, the “one-hybrid fitness for binding NBS DNA” value was at most 0.2. On to LTLY, for which the “one-hybrid fitness for binding NBS DNA” value was at most 0.2.

As to DIAS, the “one-hybrid fitness for binding NBS DNA” value is at most 0.2. The figure for TAPS is at most 0.2; for RHPY it is at most 0.2; for PPSW it is at most 0.2.

As to AQQI, the “one-hybrid fitness for binding NBS DNA” value was at most 0.2. The figure for DASK is at most 0.2; for SKFC it is at most 0.2; for LNLS it is at most 0.2.

On to RGMC, for which the “one-hybrid fitness for binding NBS DNA” value is at most 0.2. For the variant MYTF, the “one-hybrid fitness for binding NBS DNA” value is at most 0.2. As to PPCS, the “one-hybrid fitness for binding NBS DNA” value is at most 0.2. As to CAGF, the “one-hybrid fitness for binding NBS DNA” value was at most 0.2. In the case of IHED, the “one-hybrid fitness for binding NBS DNA” value is at most 0.2. The figure for ITSR is at most 0.2; for HYVS it is at most 0.2; for NLGD it is at most 0.2. As to YLMT, the “one-hybrid fitness for binding NBS DNA” value was at most 0.2.

With RTGM, the “one-hybrid fitness for binding NBS DNA” value is at most 0.2. The figure for KPSI is at most 0.2.

For the variant NYCR, the “one-hybrid fitness for binding NBS DNA” value is at most 0.2. The figure for VKKH is at most 0.2; for ACFR it is at most 0.2. For the variant LQGP, the “one-hybrid fitness for binding NBS DNA” value is at most 0.2.

For MKCN, the “one-hybrid fitness for binding NBS DNA” value is at most 0.2. Consider SGNA, for which the “one-hybrid fitness for binding NBS DNA” value was at most 0.2. Turning to MILV, the “one-hybrid fitness for binding NBS DNA” value is at most 0.2. In the case of QVMM, the “one-hybrid fitness for binding NBS DNA” value was at most 0.2. The figure for GDPW is at most 0.2. The figure for RHEL is at most 0.2; for RLCM it is at most 0.2; for IDPT it is at most 0.2. Take DDSW: the “one-hybrid fitness for binding NBS DNA” value is at most 0.2.
